From article PMC12136788
This is one part of the list.

T1: UNK ZnF1-3 (human, UniProt Q9C0B0 31-174)
T1 sequence: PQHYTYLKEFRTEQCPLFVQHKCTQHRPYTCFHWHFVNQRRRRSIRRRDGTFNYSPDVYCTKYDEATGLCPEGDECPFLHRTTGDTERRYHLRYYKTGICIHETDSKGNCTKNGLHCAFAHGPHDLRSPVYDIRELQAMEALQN

B1: chr14:70542292:70542293:-_ENSMUSG00000033712_ENSMUST00000035612|mus_hu|FALSE|FALSE (ssRNA)
RNA: GGGAGUUCUACAGUCCGACGAUCCAAAGUAGGCAUGAUGGUCCAGACAUCCGGCAGGUACACCACCACUGUCUGAAGCCGCCGGGGGGGUCCCGGCUGCAGGUACUGAAACUCGGCAAAGCGCCACCACUUGGUACAGCCGCUCAACAGAGGAUUGAGCAUCA
B2: chr1:109605286:109605287:-_ENSG00000197780_ENST00000461096|hu_mus|hu_hu_hu_mus_True|18_58 (ssRNA)
RNA: GGGAGUUCUACAGUCCGACGAUCAAGUUUCAGAGUAACAUUCAGUAACCUCUUUAAAUGCAAUUAUCCUUAUUAUAAACUAAGGGCAAUAAUAAUUUAAUACCGUAAGUGAACUACCACAAAACCUUGAACCGCGAAAAUGGUCAACAGAGGAUUGAGCAUCA
B3: chr10:118639881:118639882:-_ENSMUSG00000020114_ENSMUST00000020315|mus_hu|FALSE|FALSE (ssRNA)
RNA: GGGAGUUCUACAGUCCGACGAUCAACACUAGUGGUUUUACAACCUCUGGAUUAUGGAAAUACACAUUUCUGAAAUAAAUGCUACAAAAACAACAAUGGAAGAAAGCCAAACAAACAGUCUCCAUGAAGGAAAAAAAAGUGGAACAACAGAGGAUUGAGCAUCA
B4: chr3:179287964:179287965:+_ENSG00000136518_ENST00000429709|hu_hu|hu_hu_hu_mus_True|8_78 (ssRNA)
RNA: GGGAGUUCUACAGUCCGACGAUCCUUGAGUGGUGAGAUGGCCUCCAUGUUCUCCCUCGGAACACGCAGGGCAUUGGUGUCUAUGUAGUAGGUGGGCCCGCCCUGCUUGCCUUUGUCACCAUCAAUCUCCAUUAAUGUACUUCCCAACAGAGGAUUGAGCAUCA
B5: chr19:47223328:47223329:-_ENSG00000090372_ENST00000263280|hu_hu|FALSE|FALSE (ssRNA)
RNA: GGGAGUUCUACAGUCCGACGAUCAGCAGGAGCUCAAGGGGAGAACCUGGCACCUUCUGGAGUCUUGGAAAAACUGAUCCCUAAAGACACCCGGCCCUGGCUGUGCUGCCCUCUGGAAAGCAGCUCUGAUACCAGGAGCGGCUGCAACAGAGGAUUGAGCAUCA
B6: 29961457_29961577_3458_3pUTR_ENSG00000136193_ENST00000242059|human|control|control (ssRNA)
RNA: GGGAGUUCUACAGUCCGACGAUCAGACUUCUUUUGAUCAAAUCCUGAAUCACCUUGGUUAUCUCAGACAUGUCAGGUCUGAUGAGACAUUUCAUAGUAGGCGAAGGUGAAAUCACUCAGUGAGAUUUUAGAGCAGCUUUCUGUCAACAGAGGAUUGAGCAUCA
B7: chr1:180793972:180793973:+_ENSG00000143324_ENST00000367589|hu_mus|FALSE|FALSE (ssRNA)
RNA: GGGAGUUCUACAGUCCGACGAUCGAGGACAUGAUUUACUCCAGCUUGUCUCCAACCAUAUGUGUUGAUGCCCAGUAGAAAAAGGAAUUCAAUCAGAAGAAAGCCACCCCGAUAGAUUCUUAUCAAGGGCCAUACAGUUCUAUCCAACAGAGGAUUGAGCAUCA
B8: 163841862_163842452_1081_3pUTR_ENSMUSG00000018326_ENSMUST00000018470|mouse|control|control (ssRNA)
RNA: GGGAGUUCUACAGUCCGACGAUCUCCCUCUCCAGCAUCUCCUUCAUCCCCCUGGUUUUCUGACGUCCACAGGGUGAGAUUGUCCCUGAGCAGCUGCAUGAUCAGGGUGCUGUCUUUGUAAGACUCUUCAUUCAGGGUGUCCAACAACAGAGGAUUGAGCAUCA
B9: chr3:130449232:130449233:-_ENSG00000196455_ENST00000356763|hu_hu|motif|central (ssRNA)
RNA: GGGAGUUCUACAGUCCGACGAUCCUCAUCUAUUUCUUCAUUAUUGGGGUCAUUUUCCAUAUUAAGAUUUUUUAACUGUACGGAUUCCAGGAAUCUCAGAGCUGUUUCUGCCAGCAGAGCUAUGUUUUCAGCAUAGGCUAGUCUCAACAGAGGAUUGAGCAUCA
B10: chr11:77336104:77336105:-_ENSG00000074201_ENST00000525064|hu_mus|hu_hu_hu_mus_False|68_108 (ssRNA)
RNA: GGGAGUUCUACAGUCCGACGAUCCUCGCACAUUGCAGUGAACAUCGCCUCCAAUGCUGACUUAUCACUAGGCACAAAUCGAAAUUCAGAAAUGGGUUCAACAUCAUCAUUGUCUUCCUCAUCUUCAUCAGAGAGAGGUUCUUUCAACAGAGGAUUGAGCAUCA
B11: 151889072_151891145_1785_CDS_ENSMUSG00000028034_ENSMUST00000166984|mouse|control|control (ssRNA)
RNA: GGGAGUUCUACAGUCCGACGAUCCUGCUGAUCUCCGUAGUUACCUUGUCCGUUCGUUUGGGUUGUAGCUGGUGCACCGGCAGGAGCUGCAGGUGGGGGUUGUGCCUGCUGCUGGUAAUAGUGAGCAUAAUAAGCAGCCCAAGCCAACAGAGGAUUGAGCAUCA
B12: chr4:132926270:132926271:+_ENSMUSG00000028854_ENSMUST00000030669|mus_mus|FALSE|FALSE (ssRNA)
RNA: GGGAGUUCUACAGUCCGACGAUCGAGAUUCACAAUCUCAAAGUCCAAACUGCAAAAAGGGGUUAAGUACCUUGGAGGGACUAAGGAGGAAACCGAAAGGAUCUAGAACUUCAGGCUGAGAGAAGGAAAUCGGGGAAACUGCGUCAACAGAGGAUUGAGCAUCA
B13: 220340931_220344267_2949_CDS_ENSG00000118873_ENST00000358951|human|control|control (ssRNA)
RNA: GGGAGUUCUACAGUCCGACGAUCAUCUCUUUCUUCAUUAGCCAGUUUUAAUACUUCAGGGCUGAAGUCCUGUUUAAAUAUCCACUUGGCUACACUGUCUGCAAUGCCACCUUUUCCUCCUUCUAAUAACUUUUUAACAGAAAGCAACAGAGGAUUGAGCAUCA
B14: chr17:66335897:66335898:-_ENSMUSG00000034647_ENSMUST00000038116|mus_mus|FALSE|FALSE (ssRNA)
RNA: GGGAGUUCUACAGUCCGACGAUCUUUUAAUUUAUGUUUUUUUAAUGUUUUACCCUCUUUAUCCAUCUUCUUCAGUGUGCAGUCUGAGUUUUCAAAUGCUGGAUUAUGAUCUUCAUCUUUAAUUUUGGCAUUUGAUUUUUCACCCAACAGAGGAUUGAGCAUCA
B15: chr16:42174308:42174309:+_ENSMUSG00000061080_ENSMUST00000099761|mus_mus|FALSE|FALSE (ssRNA)
RNA: GGGAGUUCUACAGUCCGACGAUCGUAUCUGUGUGACGCAUUUUUGUGUGUUUUUGUAAUUAUUUUUAAAUUUUUAUUCUAUUAACAUUUGCUGAGAAGGCAGAACAGGGACGCUGCCAGCAGCCACAGUGGUACGGCCAGACUCAACAGAGGAUUGAGCAUCA
B16: chr4:41265268:41265269:+_ENSG00000154277_ENST00000284440|hu_hu|FALSE|FALSE (ssRNA)
RNA: GGGAGUUCUACAGUCCGACGAUCAAAAGGCAUUCGUCCAUCAAGUUCAUAGAGGUGGCCAUCCACGUUGUUAAACAGAAUAAAAUGGAAAUUCACCUUGUCAUCUACCCGACAUUGGCCUUCCUGUGCCACGGCAUCAUGGGCCAACAGAGGAUUGAGCAUCA
B17: chr5:143665172:143665173:-_ENSMUSG00000029580_ENSMUST00000100497|perfect_dup|motif|central (ssRNA)
RNA: GGGAGUUCUACAGUCCGACGAUCUUUGGGAGGGUGAGGGACUUCCUGUAACCACUUAUUUCAUGGAUACUUGGAAUGACGGUUAAAAAAAGACAAAACCAAAAAAAAAAAAAAACAAAACAAUGUACAAAGUCCUCAGCCACACAACAGAGGAUUGAGCAUCA
B18: chr7:54825262:54825263:-_ENSG00000132432_ENST00000352861|hu_hu|hu_hu_hu_mus_False|8_58 (ssRNA)
RNA: GGGAGUUCUACAGUCCGACGAUCCUGCCGGCUGGGCUCCACAAACUGCAUUACCUGAUCCAUGUUUGUUGGAUGGCACACCUAAAACGUAGAGACACGUAGCUCAGGAGAGAACCGAGCCCAACGGCACCGGAACCUGGCAACCAACAGAGGAUUGAGCAUCA
B19: chr7:90019327:90019328:+_ENSMUSG00000057706_ENSMUST00000082237|mus_mus|FALSE|FALSE (ssRNA)
RNA: GGGAGUUCUACAGUCCGACGAUCGAAAUAUAAUUUUUCAAGUCAAAAAAAGAAUAAAAUACUUCAAUCUGUAUUAAUGCAAUUUCUCUUUAAAACUUUUAAAGGUUUUUUUUUUUAAUAUAUAAGAGAUAUGUUACAGUUUUACAACAGAGGAUUGAGCAUCA
B20: chr12:1897663:1897664:+_ENSG00000006831_ENST00000357103|hu_hu|motif|central (ssRNA)
RNA: GGGAGUUCUACAGUCCGACGAUCUUGUGGCUUUAGCAUAAUUUAUAAAGGGGAAGAGGGAAAAUACUGAAAAAGGCCACGGUUUAAUGGUGAAAGAAUGAAGCUGUAGAGGUCCCAACCAGCCUAGGGCCAAAAAAGAAAAUUCAACAGAGGAUUGAGCAUCA
B21: chr2:31148548:31148549:+_ENSMUSG00000062661_ENSMUST00000000199|mus_mus|FALSE|FALSE (ssRNA)
RNA: GGGAGUUCUACAGUCCGACGAUCAGCUGGGGGAACAGUACAUUAGCCAUUUAGCAAUGCCCACCUUCCCCUCUCCAAAAAUGGGGCACAGUAUCUGAGAAAAAAAAAAGAGGAAAAGAUUUUUGGCUUCUUGGCCGCUGCAGGCAACAGAGGAUUGAGCAUCA
B22: chr1:10529278:10529279:-_ENSG00000160049_ENST00000377038|hu_mus|FALSE|FALSE (ssRNA)
RNA: GGGAGUUCUACAGUCCGACGAUCCUCUUGGGAAACCCAAGCCGUCCCUCCAUCGGAAUCAUUAUAAAUCCACUUCUCAUUGCAGGCCAACGCCACAAACUUCGUAUUGGAAGGAAGGCAGAGGAAGUAGUCAUCGUCAUCCACCAACAGAGGAUUGAGCAUCA

Target: T1, UNK ZnF1-3
Assay: nsRBNS (natural sequence RNA bind-n-seq); RBNS binding buffer (assumed for nsRBNS): 25 mM Tris pH 7.5, 150 mM KCl, 3 mM MgCl2, 0.01% Triton X-100, 500 ug/ml BSA, 20 U/ml SUPERase-In, 4 C; UNK is unkempt and MSI1 is Musashi-1; names of the RNAs are library labels; protein concentration not given here; high values mean tight binding

Binder	binding signal
B1	1.13 enrichment R
B2	0.706 enrichment R
B3	1.73 enrichment R
B4	0.4 enrichment R
B5	1.86 enrichment R
B6	0.923 enrichment R
B7	1.41 enrichment R
B8	0.854 enrichment R
B9	0.841 enrichment R
B10	0.936 enrichment R
B11	1.1 enrichment R
B12	2.27 enrichment R
B13	0.669 enrichment R
B14	0.17 enrichment R
B15	3.2 enrichment R
B16	1.02 enrichment R
B17	1.06 enrichment R
B18	1.17 enrichment R
B19	2.97 enrichment R
B20	2.82 enrichment R
B21	2.7 enrichment R
B22	1.11 enrichment R
